The values below come from a collection of fitness landscapes (doi:10.1038/s41467-024-54723-y).

Whole data set: some 18,000 sequences, median “TetR repression strength (sort-seq, GFP reporter)” near 0.23, cut for the highest 2% near 0.68. Some of the results follow.

The assay has as its target TetR (class B, Tn10) (UniProt P04483). As to the kind of experiment: TetR repression strength (sort-seq, GFP reporter) (relative to tetO2 = 1); higher = stronger repression. Particulars: E. coli. In outline: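 Three independent transformations of E. coli SIG10-MAX were made with a low-copy plasmid library randomizing eight operator positions between a constitutive promoter and sfGFP, with constitutive TetR. Following 5 h at 37 °C in LB plus 50 µg/mL chloramphenicol, 10^6 cells went through FACS into 13 fluorescence bins, and each bin was sequenced by Illumina. Repression strength was defined as the top bin index plus one minus the read-weighted mean bin, divided by the unaltered operator's value. Averages included only members reaching ≥30 reads in all replicates with a CV ≤0.5.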
Chain of UniProt P04483 (P04483 whole entry): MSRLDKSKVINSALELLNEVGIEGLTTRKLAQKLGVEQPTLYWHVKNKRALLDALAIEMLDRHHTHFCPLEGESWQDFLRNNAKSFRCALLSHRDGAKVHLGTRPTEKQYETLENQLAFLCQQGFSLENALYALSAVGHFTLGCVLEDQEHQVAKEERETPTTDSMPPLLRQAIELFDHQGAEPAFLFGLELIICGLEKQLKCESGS
In turn, TCCCATGGAGTCTGGGAGA had a TetR repression strength of 0.351.
The value for TCCCGGCGAGTCTTGGAGA was 0.19.
On to TCCCAGTTAGTGGAGGAGA, for which the TetR repression strength was determined as 0.149.
The value for TCCCGCAGAGTATAAGAGA was 0.177; that for TCCCCGGTAGTGGTTGAGA was 0.286.
The value for TCCCGACCAGTTATTGAGA was 0.545; that for TCCCTGCCAGTTGATGAGA was 0.33; that for TCCCCTTTAGTATGTGAGA was 0.435.
To TCCCGCTGAGTGCACGAGA belongs 0.0645.
The sequence TCCCTTGGAGTGTACGAGA yielded a TetR repression strength of 0.234.
To TCCCCTGGAGTCTTCGAGA belongs 0.274; to TCCCTTGCAGTCAAGGAGA, 0.268.
To TCCCCGATAGTTACAGAGA belongs 0.311; to TCCCGGATAGTTAACGAGA, 0.261.
To TCCCCGGGAGTCAGGGAGA belongs 0.145; to TCCCATAAAGTACGGGAGA, 0.264; to TCCCGAGGAGTCAATGAGA, 0.31.
Turning to TCCCCTGGAGTGTAGGAGA, the TetR repression strength is 0.407.
To TCCCCCTAAGTTTCAGAGA belongs 0.414; to TCCCATTAAGTCTGCGAGA, 0.2; to TCCCGTAGAGTCTGGGAGA, 0.201.
Sequence TCCCTCCGAGTATCTGAGA showed a TetR repression strength of 0.323.
To TCCCATCCAGTCATTGAGA belongs 0.364; to TCCCATGGAGTTTCTGAGA, 0.0409.
As for TCCCGGGCAGTACGGGAGA, the TetR repression strength amounted to 0.168.
To TCCCATACAGTCGTAGAGA belongs 0.0752; to TCCCGCACAGTGCGGGAGA, 0.113.
The sequence TCCCGGCCAGTTTCAGAGA showed a TetR repression strength of 0.298.
The value for TCCCCCGGAGTTGGGGAGA was 0.159; that for TCCCTACTAGTGAATGAGA was 0.426; that for TCCCGTACAGTTCTTGAGA was 0.292.
To TCCCAAACAGTCCTCGAGA belongs 0.391; to TCCCAACCAGTTTTAGAGA, 0.399; to TCCCATATAGTCGGTGAGA, 0.355.
TCCCGGGTAGTGCCGGAGA registered a TetR repression strength of 0.147.
The value for TCCCGCGAAGTCAAGGAGA was 0.32; that for TCCCAAAGAGTCAATGAGA was 0.357.
To TCCCTGGGAGTGCTCGAGA belongs 0.0982; to TCCCACGTAGTAAGGGAGA, 0.
To TCCCTGCCAGTAATAGAGA belongs 0.411.
The sequence TCCCTCTAAGTTCGGGAGA yielded a TetR repression strength of 0.144.
The value for TCCCGAATAGTGACAGAGA was 0.464; that for TCCCGCAAAGTCAGGGAGA was 0.273; that for TCCCAGCAAGTAGTCGAGA was 0.249.
The value for TCCCGTCCAGTGCGTGAGA was 0.139; that for TCCCACGTAGTATCAGAGA was 0.0648; that for TCCCAATCAGTTGTAGAGA was 0.439.
As to TCCCCAAGAGTTTCGGAGA, the TetR repression strength turned out to be 0.254.
The value for TCCCAGCTAGTACAAGAGA was 0.242; that for TCCCAGCGAGTCCTCGAGA was 0.534.
The value for TCCCGTCCAGTGATAGAGA was 0.464; that for TCCCTCAAAGTGTGGGAGA was 0.454; that for TCCCGTCAAGTTATTGAGA was 0.167.
To TCCCACATAGTGCATGAGA belongs 0.288; to TCCCGTACAGTATGGGAGA, 0.189.
In turn, TCCCGACAAGTTCACGAGA returned a TetR repression strength of 0.
To TCCCCGGAAGTGCGGGAGA belongs 0.265; to TCCCCGGTAGTGCACGAGA, 0.164.
To TCCCGCGGAGTTGAGGAGA belongs 0.0769; to TCCCCACAAGTGGATGAGA, 1.22.
The value for TCCCCAAGAGTGGATGAGA was 0.19; that for TCCCGCTTAGTAGAGGAGA was 0.488; that for TCCCTATGAGTCCGAGAGA was 0.0546.
TCCCGTTAAGTTTACGAGA had a TetR repression strength of 0.06.
The value for TCCCAATTAGTGATTGAGA was 0.473.
To TCCCCGTTAGTGTTGGAGA belongs 0.677; to TCCCGTCTAGTCGTAGAGA, 0.317; to TCCCATAAAGTAGAGGAGA, 0.174.
In turn, TCCCGGGTAGTCAGGGAGA came in with a TetR repression strength of 0.176.
The value for TCCCCGGGAGTTAATGAGA was 0.517; that for TCCCGTTTAGTTGATGAGA was 0.0401.
The value for TCCCGTCGAGTATTTGAGA was 0.117; that for TCCCGTAGAGTACAGGAGA was 0.229; that for TCCCTCACAGTGGGTGAGA was 0.098.
TCCCTCATAGTGGTGGAGA yielded a TetR repression strength of 0.412.
Regarding TCCCAAAAAGTGGATGAGA, the TetR repression strength is 0.374.
Regarding TCCCTGTGAGTGCCGGAGA, the TetR repression strength amounted to 0.164.
To TCCCTGGAAGTTGGGGAGA belongs 0.151.
The value for TCCCGGTTAGTGTCAGAGA was 0.222; that for TCCCGCCGAGTCGGTGAGA was 0.156.
In turn, TCCCTTGCAGTGAATGAGA showed a TetR repression strength of 0.374.
TCCCGACTAGTCTAAGAGA yielded a TetR repression strength of 0.39.
To TCCCTTGCAGTGATTGAGA belongs 0.596.
Sequence TCCCTGAAAGTTGGAGAGA returned a TetR repression strength of 0.166.
The value for TCCCGCGCAGTCGGCGAGA was 0.161; that for TCCCATTGAGTGATGGAGA was 0.377.
With TCCCTATCAGTTACCGAGA, the TetR repression strength came to 0.663.
As to TCCCTTTGAGTGGACGAGA, the TetR repression strength turned out to be 0.246.
On to TCCCTGATAGTCCGTGAGA, for which the TetR repression strength stood at 0.185.
To TCCCGGTAAGTCGGCGAGA belongs 0.126; to TCCCGGCGAGTGTCTGAGA, 0.388.
As to TCCCATCCAGTCCGGGAGA, the TetR repression strength was found to be 0.302.
In turn, TCCCGTCGAGTTGAAGAGA showed a TetR repression strength of 0.603.
The value for TCCCTTCCAGTGTACGAGA was 0.338; that for TCCCGGAAAGTCTAGGAGA was 0.216; that for TCCCTAGTAGTTACCGAGA was 0.12.
The value for TCCCTGCAAGTGGGCGAGA was 0.224; that for TCCCCGGGAGTTCTCGAGA was 0.0879; that for TCCCCATGAGTCTGTGAGA was 0.164.
To TCCCCTTTAGTCTGCGAGA belongs 0.429; to TCCCAAGCAGTATTCGAGA, 0.318; to TCCCTACTAGTGCATGAGA, 0.326.
